# According to paper PMC4336329 (PLoS ONE, 2015):
# Screen size: about 310,000 compounds; about 14,000 (4.5%) showed an effect of 50% or more. The effect is printed as a negative number. Some of the results follow.
# Target: human ether-à-go-go-related gene (hERG) potassium channel (human, UniProt Q12809)
# Test: primary screen, population patch clamp on CHO cells stably expressing hERG
# 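Also: peak tail current of the secondary pulse compared with the same well before compound.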
# Chain of human ether-à-go-go-related gene (hERG) potassium channel (Q12809 whole entry, looked up): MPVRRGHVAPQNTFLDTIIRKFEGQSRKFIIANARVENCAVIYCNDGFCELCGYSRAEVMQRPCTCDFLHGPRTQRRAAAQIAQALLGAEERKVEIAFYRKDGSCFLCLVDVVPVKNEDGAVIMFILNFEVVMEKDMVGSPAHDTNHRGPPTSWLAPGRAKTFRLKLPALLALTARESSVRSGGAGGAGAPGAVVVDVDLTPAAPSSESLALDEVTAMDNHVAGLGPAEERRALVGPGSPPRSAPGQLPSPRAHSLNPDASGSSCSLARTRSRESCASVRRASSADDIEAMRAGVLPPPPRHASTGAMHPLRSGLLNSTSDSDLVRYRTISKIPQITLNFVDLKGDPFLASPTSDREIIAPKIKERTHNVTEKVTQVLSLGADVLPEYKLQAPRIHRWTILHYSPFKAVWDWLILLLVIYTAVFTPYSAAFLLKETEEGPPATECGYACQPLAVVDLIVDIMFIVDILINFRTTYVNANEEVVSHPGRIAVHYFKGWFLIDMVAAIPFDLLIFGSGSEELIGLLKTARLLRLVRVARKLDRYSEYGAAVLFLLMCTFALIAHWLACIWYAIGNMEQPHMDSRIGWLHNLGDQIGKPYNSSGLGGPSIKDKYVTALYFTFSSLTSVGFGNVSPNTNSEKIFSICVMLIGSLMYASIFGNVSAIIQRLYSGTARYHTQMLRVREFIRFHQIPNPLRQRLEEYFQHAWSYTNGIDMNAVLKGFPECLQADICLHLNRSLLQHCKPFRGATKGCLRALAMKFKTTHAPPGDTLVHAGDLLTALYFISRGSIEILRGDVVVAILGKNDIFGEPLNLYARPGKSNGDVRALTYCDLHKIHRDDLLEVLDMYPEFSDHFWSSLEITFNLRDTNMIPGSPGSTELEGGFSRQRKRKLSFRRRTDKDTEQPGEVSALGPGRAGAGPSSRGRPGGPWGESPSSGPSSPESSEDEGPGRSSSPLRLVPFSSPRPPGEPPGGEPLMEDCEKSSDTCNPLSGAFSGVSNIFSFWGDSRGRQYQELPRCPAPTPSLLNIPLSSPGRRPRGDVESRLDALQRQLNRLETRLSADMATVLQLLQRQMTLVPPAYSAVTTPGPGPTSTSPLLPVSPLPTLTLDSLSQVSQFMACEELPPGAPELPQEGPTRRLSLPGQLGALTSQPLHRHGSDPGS
row,SMILES,"hERG current change (%, negative = inhibition) at 10uM [%]"
1,CCCCCC(=O)Nc1cc(S(=O)(=O)N2CCOCC2)ccc1N1CCN(C)CC1,-11.3
2,CCOc1cc(C2CC(=O)NC3=C2C(=O)C(C(=O)OC)C(C)C3)cc(Cl)c1O (centres unmarked),6.41
3,O=C(CSc1nc2c(c(=O)n1-c1ccc(Cl)cc1)SCC2)Nc1nccs1,5.97
4,CCOC(=O)COc1coc(CN2CCN(c3ccc(F)cc3)CC2)cc1=O,-19.4
5,CCOC(=O)c1cc2nc(-c3ccccc3)cc(C)n2n1,5.61
6,CCC(C(=O)OCC(=O)NC(=O)NC(C)(C)C)c1ccccc1 (centres unmarked),33.4
7,N#CCc1c(C#N)c(N)nc(N2CCN(Cc3ccc4c(c3)OCO4)CC2)c1C#N,-27.2
8,O=C(CN(C(=O)C1CSC(=O)C1)c1cccc(F)c1)NC1CCCC1 (centres unmarked),20.5
9,CCOc1cccc(-c2nc3c(s2)CCc2onc(-c4cccc([N+](=O)[O-])c4)c2-3)c1,11.4
10,Cc1ccc(-n2c(SCC(=O)O)nc3sc4c(c3c2=O)C(C)CCC4)cc1 (centres unmarked),5.93
11,CCOC(=O)c1ccc(NC(=O)CSc2nnc(-c3ccncc3)n2C)cc1,-26.8
12,CCOC(=O)CSc1nc2c(sc(=S)n2Cc2ccco2)c(=O)n1-c1ccc(F)cc1,-9.25
13,Cc1cc(C)c2c(N)c(C(=O)c3ccccc3Cl)sc2n1,18.5
14,Nc1nccnc1C(=O)OCC(=O)Nc1ccc2[nH]c(=O)[nH]c2c1,17
15,C/C(=N/NC(=O)CNC(=O)c1ccco1)c1ccco1,2.11
16,O=C(CN1CCC(n2nnc3cc(F)ccc32)CC1)NC1CCCCC1,-32.8
17,CC1CCc2cc(F)ccc2N1S(=O)(=O)c1ccc(F)cc1 (centres unmarked),-16.4
18,Cc1ccc(Nc2nc(-c3ccc(F)cc3)cs2)nc1,17.1
19,Cc1ccccc1/[N+]([O-])=C/c1cccs1,13.9
20,Cc1ccccc1C(=O)N1CCN(S(=O)(=O)c2cccs2)CC1,5.3
21,CCOC(=O)c1ccc(NC(=S)NCc2ccccc2)cc1,17.3
22,C=CCOc1c(OC)cc(Cl)cc1C1NC(=O)NC(C)=C1C(C)=O (centres unmarked),5.86
23,COc1ccc(CC(=O)Nc2cccc(-c3ccc4nncn4n3)c2)cc1OC,5.97

row,SMILES,"hERG current change (%, negative = inhibition) at 10uM [%]"
1,CC1CCCCN1C(=O)COc1ccc2ccc(=O)oc2c1 (centres unmarked),-0.695
2,O=C(c1cccs1)N(Cc1cccc(Cl)c1)C1CCS(=O)(=O)C1 (centres unmarked),-52
3,CC(=O)c1ccc(OCCCC(=O)Nc2cccc(-c3nn[nH]n3)c2)cc1,11.6
4,O=C(Nc1cc(S(=O)(=O)N2CCOCC2)ccc1O)c1ccc(NS(=O)(=O)c2ccc(Cl)s2)cc1,6.26
5,COc1ccc(S(=O)(=O)N2CCOCC2)cc1NC(=O)COC(=O)CCOc1ccc(C)cc1,-34
6,C=CCn1c(=O)c(C(=O)Nc2ccc(C)cn2)c(O)c2ccccc21,15.8
7,Oc1ccc(C(=S)N2CCN(Cc3ccccc3)CC2)cc1,-5.46
8,Cc1ccc(N2C(=O)C3C(C2=O)C2C=CC3C23CC3)c([N+](=O)[O-])c1 (centres unmarked),-5.47
9,COc1ccc(C(C#N)c2cnccn2)cc1OC (centres unmarked),0.00978
10,COCCNC(=O)CSc1ccccc1C(=O)NC1CCSc2ccccc21 (centres unmarked),-1.44
11,Cc1ccc(-c2nc(=O)[nH]c3ccc(Br)cc23)cc1,-1.51
12,Nc1nc(N2CCOCC2)cc(=O)[nH]1,11.1
13,O=C(NCCCCl)C1CC(=O)N(CCc2ccc(F)cc2)C1 (centres unmarked),8.74
14,Cc1nn(CC(O)COc2ccc3c(c2)CCC3)c(C)c1C (centres unmarked),-5.21
15,COCCCNC(=O)c1cn(C)c(=O)c2c1c1ccccc1n2C,5.53
16,CCCc1ccc(OCc2ccc(C(=O)NCc3cccnc3)o2)c(OC)c1,-48.4
17,O=C(O)CCN1/C(=C/C=Nc2ccccc2)Oc2ccccc21,-14.2
18,CCOc1ncccc1C(=O)OCCN1C(=O)c2ccccc2C1=O,-9.65
19,O=C(c1ccco1)N1CCN(c2ncnc3c2cnn3-c2ccccc2)CC1,-64.5
20,COc1ccc(-c2cc(C(=O)N3CCN(C(c4ccccc4)c4ccccc4)CC3)no2)cc1,15.7
21,CCc1ccc[n+](-c2[nH]c(=O)sc2/C=N/N=C(\N)[O-])c1,-10
22,CCCCCC#CCC#CCC#CCC#CCCCC(=O)O,-4.57
23,CC(=O)Oc1cc2oc(=O)cc(C)c2cc1OC(C)=O,-5.64

row,SMILES,"hERG current change (%, negative = inhibition) at 10uM [%]"
1,O=C(c1ccc(S(=O)(=O)N2CCCCC2)cc1)N1CCCC(C(F)(F)F)C1 (centres unmarked),-12.3
2,COCCOc1cc(Nc2nnc(C(F)(F)F)s2)c(Cl)cc1Cl,-6.54
3,COc1ccc(CC(=O)Nc2ccc(-c3noc(-c4ccc(Cl)cc4)n3)cc2)cc1,6.85
4,COc1ccc(OCc2nc(N)nc(Nc3ccccc3OC)n2)cc1,9.46
5,O=C(Nc1cccc(Cl)c1)c1cc2c(=O)n3ccccc3nc2s1,-5.71
6,COc1cc(/C=N/NC(=O)CNc2n[nH]c(=O)[nH]c2=O)ccc1O,-6.93
7,Nc1ccc(N2CCOCC2)c(Cl)c1,1.49
8,Cc1cc(Cl)c(S(=O)(=O)Nc2ccc(Cl)cn2)cc1OCC(N)=O,-2.03
9,CCc1c2ccccc2nn1-c1ccccc1C(=O)C(C)=O,6.31
10,Cc1ccc(N2C(=O)CC(C)CC2=O)cc1,21.2
11,Cc1cc(=O)n(Cc2ccccc2)c(O)c1C#N,18.9
12,Nc1nc(-c2ccccc2)nc2sc3c(c12)CCCC3,11.7
13,C/C(=N/NS(=O)(=O)c1ccc(C)cc1C)c1c[nH]c2ccccc12,16.5
14,COc1ccc(CCn2c(NN=C(C)C)nc3c2c(=O)[nH]c(=O)n3C)cc1,13.2
15,CC(=O)c1ccccc1NS(=O)(=O)c1cccc2nonc12,-52.2
16,Cc1ccc(CC(=O)NCC(c2ccco2)N(C)C)cc1C (centres unmarked),4.43
17,Cn1c(N)c(C(=O)c2ccccc2)c(=O)n(C)c1=O,8.98
18,O=C(Cn1ccc(NC(=O)OCc2ccccc2)nc1=O)NCCCN1CCCC1=O,4.62
19,NC(=O)c1c(NC(=O)c2cccs2)sc2c1CCCCCC2,-4.02
20,NC(=O)c1ccc(NC(=O)CC23CC4CC(CC(Br)(C4)C2)C3)cc1,16
21,CN(C)C=Nc1ccc2nn(-c3ccccc3)nc2c1,-49.9
22,Cc1ccccc1OCCC(=O)OCC(=O)NCCNC(=O)COC(=O)CCOc1ccccc1C,4.47
23,NC(=O)c1cc(S(=O)(=O)NCCCc2ccccc2)cs1,2.34

row,SMILES,"hERG current change (%, negative = inhibition) at 10uM [%]"
1,COc1ccc(NS(=O)(=O)c2cccc(C(=O)NCC(c3ccccc3OC)N3CCCC3)c2)cc1 (centres unmarked),-55.4
2,Cc1nnc(NC(=O)c2cccc(Br)c2)s1,-1.04
3,CCOC(=O)c1cc2c(nc1NC(=S)NCc1ccccc1)CCCC2,-11.3
4,Cn1c(-c2ccc3c(c2)OCO3)cc(=O)c2ccccc21,-3.23
5,CC12CCC(C(=O)Nc3cccnc3)(CC1=O)C2(C)C (centres unmarked),11.6
6,COCCn1c(C)cc(C(=O)CSc2nnc(C3CC3)n2C2CC2)c1C,5.4
7,COC(=O)N/N=C/c1cn(CC(C)COc2ccccc2)c2ccccc12 (centres unmarked),16.6
8,CC(C)(C)c1ccc(C(=O)Nc2nonc2-c2nc3ccccc3[nH]2)cc1,12.8
9,CC1(C)CC(=O)C2=C(C1)OC(N)=C(C#N)[C@@]21C(=O)N(CC(N)=O)c2ccccc21,12.1
10,CCOC(=O)CC1C(=O)NCCN1C(=O)c1cc2c(=O)n3ccccc3nc2s1 (centres unmarked),0.456
11,CCCN(CCC)CCNc1c(N2CCN(C(=O)OCC)CC2)c(=O)c1=O,-32.4
12,COc1ccc(OC)c(/C=N/NC(=O)c2cnccn2)c1,1.45
13,Cc1ccc(OCc2n[nH]c(=S)n2-c2ccc(C)cc2)cc1,13.1
14,COc1ccc(C(=O)CSc2nnc3ccc(-c4ccccn4)nn23)cc1,15
15,Cl.OCCNCc1ccc(-c2ccccc2)cc1,-9.74
16,COc1ccc2cc(C(=O)O)ccc2c1,-9.21
17,Cc1nn(-c2ccccc2)c2nc(C(F)F)cc(C(F)F)c12,16.2
18,c1ccc(Cn2nnc3c(NCCN4CCOCC4)ncnc32)cc1,7.49
19,COc1ccc(-c2csc(NC(=O)c3ccccc3S(C)(=O)=O)n2)cc1,10.7
20,CCCC(=O)NNC(=O)Nc1ccccc1,19.8
21,Cc1cc(SCNC(=O)c2ccccc2)nc(C(C)C)n1,35.9
22,COc1ccc(CNc2nc(-c3ccccc3)nc3ccccc23)cc1OC,18.2
23,O=C(NCc1ccc2c(c1)OCO2)Nc1ccc2ccccc2c1,9.75
